# Among all 310,000 compounds or so, about 14,000 (4.5%) showed an effect of 50% or more. Effects have a minus sign here. This is one part of the list.
# Target: human ether-à-go-go-related gene (hERG) potassium channel (human, UniProt Q12809)
# Assay: primary screen, population patch clamp on CHO cells stably expressing hERG
# 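Also: peak tail current of the secondary pulse compared with the same well before compound.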
# Sequence of human ether-à-go-go-related gene (hERG) potassium channel (Q12809 whole entry, looked up): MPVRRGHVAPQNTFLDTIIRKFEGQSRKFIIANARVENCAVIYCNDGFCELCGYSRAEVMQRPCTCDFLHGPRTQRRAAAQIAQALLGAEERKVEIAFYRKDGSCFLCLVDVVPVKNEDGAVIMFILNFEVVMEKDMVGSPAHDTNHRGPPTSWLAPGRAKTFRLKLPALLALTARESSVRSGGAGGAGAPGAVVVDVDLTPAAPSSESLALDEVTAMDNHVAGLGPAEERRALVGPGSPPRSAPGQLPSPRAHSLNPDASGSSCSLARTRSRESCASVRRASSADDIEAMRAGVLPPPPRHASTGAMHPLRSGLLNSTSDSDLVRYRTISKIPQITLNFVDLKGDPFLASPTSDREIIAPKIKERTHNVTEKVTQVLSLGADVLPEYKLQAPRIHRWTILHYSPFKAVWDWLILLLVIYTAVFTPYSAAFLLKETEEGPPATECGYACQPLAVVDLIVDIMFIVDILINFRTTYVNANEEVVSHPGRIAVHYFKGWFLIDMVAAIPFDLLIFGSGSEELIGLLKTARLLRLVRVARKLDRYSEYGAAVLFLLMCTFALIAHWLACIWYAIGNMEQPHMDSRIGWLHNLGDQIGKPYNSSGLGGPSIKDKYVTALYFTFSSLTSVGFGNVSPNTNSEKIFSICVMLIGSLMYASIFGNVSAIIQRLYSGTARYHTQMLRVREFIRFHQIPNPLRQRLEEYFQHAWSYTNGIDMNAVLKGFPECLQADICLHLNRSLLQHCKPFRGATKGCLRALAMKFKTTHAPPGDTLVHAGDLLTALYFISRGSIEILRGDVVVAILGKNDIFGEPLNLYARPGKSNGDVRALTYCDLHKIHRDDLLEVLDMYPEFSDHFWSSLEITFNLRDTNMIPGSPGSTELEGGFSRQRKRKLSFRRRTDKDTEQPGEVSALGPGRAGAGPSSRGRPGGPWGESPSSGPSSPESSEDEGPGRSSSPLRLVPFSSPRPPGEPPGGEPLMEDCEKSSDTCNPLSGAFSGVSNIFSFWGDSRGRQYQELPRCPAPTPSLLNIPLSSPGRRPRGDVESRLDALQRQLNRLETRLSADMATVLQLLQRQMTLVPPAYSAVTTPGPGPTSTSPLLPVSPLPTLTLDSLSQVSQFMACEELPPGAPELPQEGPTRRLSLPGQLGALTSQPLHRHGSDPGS
row,Compound,"hERG current change (%, negative = inhibition) at 10uM"
1,Cc1c(C)n(C)c2ccc(C(=O)NCCCN3CCN(C)CC3)cc12,14.9%
2,O=C(CC1SC(=O)N(c2ccccc2)C1=O)Nc1cccc2ccccc12 (stereo not drawn),11.7%
3,O=C(NO)c1cc(OCC(F)(F)F)ccc1OCC(F)(F)F,-0.951%
4,CCOC(=O)C1CCN(C(=O)C(C)Oc2ccc(C(=O)c3ccccc3)cc2)CC1 (stereo not drawn),-41.6%
5,O=C(O)C[C@H]1c2cc(C(F)(F)F)ccc2S(=O)(=O)N1Cc1ccccc1,12.8%
6,COc1cc(CN2CCC(C(=O)N3CCN(c4ccccc4F)CC3)CC2)ccc1O.O=C(O)C(=O)O,-19.9%
7,CCOC(=O)C1(c2ccccc2)CCN(CC(=O)Nc2ccc(C)cc2)CC1,-30.1%
8,Cc1ccc(CN2CCNC(=O)C2CC(=O)N(C)Cc2cnccn2)cc1 (stereo not drawn),20.4%
9,CCC(CC)C(=O)OCC(=O)NC12CC3CC(CC(C3)C1)C2,-19.5%
10,CS(=O)(=O)N(CC(=O)NCCSCc1ccccc1Cl)c1ccc(F)cc1,-23.9%
11,CNc1c([N+](=O)[O-])cnn1-c1ccccn1,-15.5%
12,CC(C)Oc1ccc(C(=O)NC2=NCCS2)cc1,23.4%
13,COc1ccc(/C=C/C(=O)O)cc1S(=O)(=O)NC1CCS(=O)(=O)C1 (stereo not drawn),21%
14,O=C(Nc1cccc(-n2cnnn2)c1)c1ccc(C(F)(F)F)cc1,-15.3%
15,O=C(NC1CCN(Cc2ccccc2)CC1)c1cccc(S(=O)(=O)Nc2ccc(F)cc2)c1,-63.8%
16,Cl.O=C(CCN1CCCCCC1)Nc1cccc(F)c1,-23.6%
17,Cc1ccc(NC(=O)CC2(CC(=O)O)CCCC2)c(C)c1,15.6%
18,COc1ccc(C(CNC(=O)c2ccc(S(=O)(=O)N(C)C)cc2)N(C)C)cc1 (stereo not drawn),-9.83%
19,Cl.Clc1cccc(Cl)c1NC1=NCCN1,18.8%

row,Compound,"hERG current change (%, negative = inhibition) at 10uM"
1,COc1cc(C)c(N(C(C)=O)c2ccccc2)c(C)c1,-5.28%
2,Cc1ccc2c(c1)C1(OCCCO1)C(=O)N2CC(=O)NN,9.91%
3,COc1ccc(C)cc1NC(=O)C1CCCN(S(=O)(=O)c2cccc3cccnc23)C1 (stereo not drawn),-20.2%
4,CC(C)(C)n1[nH]c2c3c(ccc2c1=O)C(=O)c1ccccc1C3=O,17.8%
5,CC1=NCC(C)c2c1[nH]c1ccccc21 (stereo not drawn),-11.5%
6,Cc1cccc(C)c1N1C(=O)CC(N(O)c2ccccc2)C1=O (stereo not drawn),10.7%
7,COc1ccc(-n2c(N)c(C(=O)NCC3CCCO3)c3nc4ccccc4nc32)c(OC)c1 (stereo not drawn),-9.82%
8,CCCN1C(=O)c2ccc(C(=O)Nc3ccc4c(c3)OCO4)cc2C1=O,6.67%
9,CCNC(=S)N(CCc1c(C)[nH]c2ccccc12)Cc1cccnc1,-21.3%
10,CCCc1nc2c(sc3nc4c(cc32)COC(C)(C)C4)c(=O)n1CCN(C)C,-9.65%
11,C=CCN1C(=O)C(O)(CC(=O)c2ccccc2)c2ccccc21 (stereo not drawn),7.64%
12,CCOc1cccc2c1OC1(C)CC2NC(=O)N1c1cccc(C(=O)NCc2ccccn2)c1 (stereo not drawn),10.5%
13,O=C(COC(=O)c1ccccc1Nc1ccccc1)NCc1ccccc1Cl,-2.83%
14,COc1ccc(N(CC(=O)NCc2ccccc2OC)S(=O)(=O)c2ccc(C)cc2)cc1Cl,-8.53%
15,N#Cc1c(NC(=O)CSc2nc(N)cc(=O)[nH]2)sc2c1CCCCCC2,-18.9%
16,Nc1c(Cl)cc(-c2csc(NC(CO)c3nc4ccccc4n3CCOCCO)n2)cc1Cl (stereo not drawn),-2.73%
17,CCN(C(=O)CSc1nc2ccccc2n1CC)C1CCS(=O)(=O)C1 (stereo not drawn),0.264%
18,C=CCn1c(SCc2ccccc2)nc2scc(-c3ccc(C)o3)c2c1=O,8.76%
19,CCC(CC)C(=O)Nc1cccc(C(=O)N2CCCC2)c1,13.1%

row,Compound,"hERG current change (%, negative = inhibition) at 10uM"
1,Cc1ccccc1N=Nc1c(C)[nH]n(C(N)=S)c1=O,17.9%
2,O=C(N/N=C/c1ccccc1)c1cccc2ccccc12,18.4%
3,CCn1c(SCC(=O)Nc2ccc3c(c2)OCCO3)nnc1-c1c[nH]c2ccccc12,10.3%
4,CCOC(=O)c1ccc(NC(=O)c2cc3c(s2)CCC3)cc1,6.15%
5,O=C(Cn1cc([N+](=O)[O-])cn1)NC1CCCCCC1,0.394%
6,CCOC(=O)Cc1sc(N)nc1C,20.4%
7,Cc1nc(SCCOc2ccc(F)cc2)c2ccccc2n1,7.16%
8,CC1Cc2cc(S(=O)(=O)N3CCN(c4ccc(Cl)cc4)CC3)ccc2N1C(=O)C1CC1 (stereo not drawn),13.5%
9,Cc1ccc(C)c(S(=O)(=O)NCc2ccc(C(=O)N3CC(C)OC(C)C3)cc2)c1 (stereo not drawn),-7.68%
10,CN(Cc1ccccc1)c1ccc2nnc(-c3ccccc3)n2n1,-48.1%
11,CN1CCN(C(c2ccc(C(F)(F)F)cc2)c2cc(Cl)c3cccnc3c2O)CC1 (stereo not drawn),12.3%
12,O=c1c2c3c(sc2ncn1/N=C/c1ccco1)CCCC3,-15.4%
13,CSc1nsc(SCC(=O)Nc2ccc(Br)cn2)n1,1.37%
14,COc1ccccc1N1CCN(C(=O)/C=C/c2ccco2)CC1,-4.76%
15,Cc1[nH]nc2c1C(c1ccco1)C(C#N)=C(N)O2 (stereo not drawn),18.4%
16,Cc1ccc2nc(NC(=O)C3CCN(S(=O)(=O)c4cccc5nsnc45)CC3)sc2c1,8.3%
17,CC1=CC(=C(C#N)C#N)C=C(C)N1CCN1CCN(C(=O)Nc2cccc(Cl)c2)CC1,9.89%
18,O=C(C1CC1)N1CCN=C1SCc1ccccc1,4.06%
19,Cc1onc(-c2ccccc2)c1C(=O)Nc1nnc(C(C)(C)C)s1,6.05%

# From publication PMC4336329 (PLoS ONE, 2015)
